Results as given in PubChem BioAssay AID2147 (National Center for Advancing Translational Sciences (NCATS), 2009).
About 3,600 (1.6%) of roughly 230,000 compounds were called active. The shares of active, inactive and inconclusive entries below differ from those in the screen. Calls follow the shape of the dose curve; as a rule, active = well fitted inhibition curve with a large enough effect (not every such curve was filed as active); inconclusive = small, poorly fitted or top-dose-only effect, or another doubt; inactive = no such curve, though single readings can be large or run the other way. Where the call is inconclusive, the potency comes from a doubtful curve fit.

target: Lysine-specific demethylase 4E (Homo sapiens) (UniProt B2RXH2); test: qHTS Assay for Inhibitors of Human Jumonji Domain Containing 2E (JMJD2E); conditions: JMJD2E catalytic domain, FDH-coupled NADH fluorescence (FDH is formaldehyde dehydrogenase); series mostly up to 57.1 µM; activity change, negative = inhibition: at the top concentration
Sequence of UniProt B2RXH2 (B2RXH2 whole entry, looked up, the tested form may be a part): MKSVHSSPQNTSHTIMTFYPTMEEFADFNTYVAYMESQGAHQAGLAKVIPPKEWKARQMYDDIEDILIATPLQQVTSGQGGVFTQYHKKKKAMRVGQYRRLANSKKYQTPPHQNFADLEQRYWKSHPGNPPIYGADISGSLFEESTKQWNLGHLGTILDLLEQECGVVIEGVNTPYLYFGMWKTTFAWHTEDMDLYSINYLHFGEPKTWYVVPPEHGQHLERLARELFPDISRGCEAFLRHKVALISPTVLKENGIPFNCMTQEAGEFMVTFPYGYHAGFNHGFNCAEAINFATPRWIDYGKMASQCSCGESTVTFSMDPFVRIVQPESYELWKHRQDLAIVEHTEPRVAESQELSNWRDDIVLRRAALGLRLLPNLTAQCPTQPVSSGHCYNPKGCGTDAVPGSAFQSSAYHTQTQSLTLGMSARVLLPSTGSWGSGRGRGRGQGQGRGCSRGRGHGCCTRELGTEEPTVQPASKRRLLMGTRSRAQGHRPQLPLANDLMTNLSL
Also: nearly all actives have a fitted effect of over 50% in size.
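For activity change, negative = inhibition in this document: 0% = wells with enzyme and -100% = buffer wells without enzyme.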
Potency is read from the fitted curve at half-maximal effect; tags tell the direction and shape of the fitted curve.

SMILES | Potency | activity change, negative = inhibition
Cc1nc(SCc2nc3ccccc3[nH]2)c2oc3ccccc3c2n1 | inconclusive: 35.5 µM [inhibitor, single point] | 
C/C(CCC1CC(C)OC1=O)=N/Nc1nc(-c2ccccc2)cs1 (stereo not drawn) |  | inactive: -19.2%
Fc1ccccc1/C=N/n1cc(-c2ccccc2)[nH]c1=S | inconclusive: 31.6 µM [inhibitor, partial curve] | 
CCOC(=O)c1csc(NC(=O)c2ccc(S(=O)(=O)N(C)C)cc2)n1 | inconclusive: 39.8 µM [inhibitor, single point] | 
Cc1cc(=O)oc2cc(OCC(=O)NCCCN3CCOCC3)ccc12 | inconclusive: 28.2 µM [inhibitor, partial curve] | 
CCC1CCCCN1C(=O)CSc1nc2ccsc2c(=O)n1Cc1ccccc1 (stereo not drawn) |  | inactive: -5.22%
O=S(=O)([N-]c1nc2ccccc2nc1-n1cc[n+](Cc2ccccc2)c1)c1ccccc1 | inconclusive: 22.4 µM [inhibitor, partial curve] | 
O=S(=O)(Nc1cc2nc3ccccc3nc2n1Cc1ccccc1)c1ccc(Cl)cc1 | inconclusive: 28.2 µM [inhibitor, partial curve] | 
CC(C)(C)OC(=O)NCCCC1=CC2=CC(=O)C(C)(OC(=O)c3ccc(Cl)nc3)C(=O)C2=CO1 (stereo not drawn) |  | inactive: -20.6%
Cc1cc(C)c(C#N)c(SCC(=O)Nc2ccccc2C(N)=O)n1 | inconclusive: 35.5 µM [inhibitor, single point] | 
O=C1/C(=C/c2ccc(O)c(O)c2)Oc2cc(O)ccc21 | active: 15.8 µM | 
Nc1cc([N+](=O)[O-])ccc1Nc1ccccc1 |  | inactive: -3.41%
CN(C)C(=O)c1ccc2c(c1)n(C)c(=O)n2C |  | inactive: 10.1%
CCCNc1nc(-c2cc(-c3ccc(Cl)cc3)on2)cc(C(C)C)n1 | inconclusive: 35.5 µM [inhibitor, single point] | 
CCOc1cc(NC(=S)NCCCN2CCOCC2)c(OCC)cc1NC(=O)C1CCCCC1 |  | inactive: -3.15%
Cc1cc(/C=C2/NC(=O)NC2=O)c(C)n1-c1ccccn1 | active: 25.1 µM | 
COc1ccc(-c2nc3n(c2C)Cc2ccccc2-3)cc1 | inconclusive: 23.8 µM [inhibitor, partial curve] | 
CCN(CC)S(=O)(=O)c1cccc(C(=O)N[C@H](C(=O)O)C(C)C)c1 |  | inactive: 10.5%
N=c1c2c(ncn1Cc1ccco1)Oc1c(ccc3ccccc13)C2c1ccccc1 (stereo not drawn) | inconclusive: 35.5 µM [inhibitor, single point] | 
COc1ccc(C2C3=C(CC(C)(C)CC3=O)OC(N)=C2[N+](=O)[O-])cc1 (stereo not drawn) |  | inactive: 1.29%
COc1ccc(/C=N/NC(=O)c2cccc(COCC(F)(F)C(F)F)c2)cc1 |  | inactive: -7.57%
O=C(Nc1ccc(Nc2ccncc2)cc1)c1ccc(Nc2ccnc3ccc([N+](=O)[O-])cc23)cc1 |  | inactive: -10.6%
COC(=O)c1ccc(CSc2n[nH]c(=S)s2)o1 | inconclusive: 39.8 µM [inhibitor, single point] | 
Clc1cccc(-c2ccc(CNCCCN3CCOCC3)o2)c1 |  | inactive: -9.73%

SMILES | Potency | activity change, negative = inhibition
COc1ccc(S(=O)(=O)N2CCCC2C(=O)n2nc(C)cc2C)cc1 (stereo not drawn) |  | inactive: -1.61%
O=C(/C=C\Nc1ccc2c(c1)OCO2)c1ccccn1 | inconclusive: 39.8 µM [inhibitor, single point] | 
c1ccc2c(c1)CC/C2=N/Nc1nc2ccccc2[nH]1 |  | inactive: -0.311%
NC(=O)c1ccc(/C=N/O)nc1 | inconclusive: 39.8 µM [inhibitor, single point] | 
C=C1CC[C@H](O)C/C1=C/C=C1\CCC[C@]2(C)[C@@H]([C@H](C)CCCC(C)(C)O)CC[C@@H]12 |  | inactive: -2.19%
CC12CCC(C(=O)Nc3cccc(NC(=O)C45CCC(C)(C(=O)O4)C5(C)C)n3)(OC1=O)C2(C)C |  | inactive: 17.2%
CN(C)CCOc1ncnc2c1oc1ccccc12 |  | inactive: 4.63%
CCC(CC)C(=O)NCCCN1CCOCC1 |  | inactive: 1.62%
CSc1nc(=S)cc(C)[nH]1 | inconclusive: 39.8 µM [inhibitor, single point] | 
CCOC(=O)CSc1nc(-c2ccc3c(c2)OCO3)ccc1C#N | inconclusive: 31.6 µM [inhibitor, partial curve] | 
C[n+]1nc(Nc2cccc3ccccc23)sc1-c1ccc(C(=O)O)cc1 | active: 8.91 µM | 
NC(=O)c1ccccc1NS(=O)(=O)c1ccc(F)cc1 | inconclusive: 35.5 µM [inhibitor, partial curve] | 
CCOC(=O)c1cnc2scnn2c1=O | inconclusive: 25.1 µM [inhibitor, single point] | 
C=CCN(CC=C)C(=S)NC(=O)c1ccc(C)c(Br)c1 | inconclusive: 28.2 µM [inhibitor, single point] | 
Cc1cc(C(=O)OCC(=O)NC2CCS(=O)(=O)C2)c(C)n1-c1ccccc1 (stereo not drawn) |  | inactive: 3.33%
COCc1[nH]nc2c1C(c1sccc1C)C(C#N)=C(N)O2 (stereo not drawn) | inconclusive: 28.2 µM [inhibitor, single point] | 
COc1cccc2[nH]c3c(N4CCC(C(N)=O)CC4)ncnc3c12 | inconclusive: 25.1 µM [inhibitor, partial curve] | 
O=C(COC(=O)c1cc(NS(=O)(=O)c2cccs2)ccc1O)Nc1ccccc1 | inconclusive: 31.6 µM [inhibitor, single point] | 
O=C(Oc1ccc(NC2=NS(=O)(=O)c3ccccc32)cc1)c1cccnc1 | inconclusive: 39.8 µM [inhibitor, single point] | 
CCOC(=O)C1CCN(c2c(NCc3ccc(N(C)C)cc3)c(=O)c2=O)CC1 |  | inactive: -3.52%
Cc1ccc(-c2nc3ccccn3c2Nc2ccccc2)o1 | inconclusive: 28.2 µM [inhibitor, partial curve] | 
COC(=O)c1ccc(NC(=O)Nc2ccccc2F)cc1 | inconclusive: 3.98 µM [inhibitor, single point] | 
NS(=O)(=O)c1ccc(NC2=CC(c3ccc([N+](=O)[O-])cc3)N(c3ccc(S(N)(=O)=O)cc3)C2=O)cc1 (stereo not drawn) | inconclusive: 28.2 µM [inhibitor, single point] | 
Cc1cc(C)c2c(n1)nn1c(N3CCN(c4ccccn4)CC3)cc(C)nc21 | inconclusive: 14.1 µM [inhibitor, partial curve] | 
